Measured values as given in publication PMC12136788.
The other results are listed elsewhere or left out.

T1: UNK ZnF1-6 (called full-length) (human, UniProt Q9C0B0 30-357)
T1 sequence: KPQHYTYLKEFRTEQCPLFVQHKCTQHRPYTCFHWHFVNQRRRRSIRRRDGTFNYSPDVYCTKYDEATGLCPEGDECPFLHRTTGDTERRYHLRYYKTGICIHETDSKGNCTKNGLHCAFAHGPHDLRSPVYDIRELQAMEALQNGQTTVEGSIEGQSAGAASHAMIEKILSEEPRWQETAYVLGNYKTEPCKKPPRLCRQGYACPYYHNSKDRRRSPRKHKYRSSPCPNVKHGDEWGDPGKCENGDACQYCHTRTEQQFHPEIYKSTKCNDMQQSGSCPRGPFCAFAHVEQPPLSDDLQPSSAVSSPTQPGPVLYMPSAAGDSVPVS

B1: ENSG00000170471:stop:overlap|stop_codon|ENSG00000170471|stop_codon|NA|stop_codon (ssRNA)
RNA: GGGAGUUCUACAGUCCGACGAUCUGGAGCCAGAGUUUUAUACUUCACUUUUCCAGGAGGUUGGACUCAAGAACUGCAGUUCUUAGACCACUGAAUUUCUAAGACUGUUGAACUCCAGUUUGGGAACUAUAACACAGCAGAACACAACAGAGGAUUGAGCAUCA
B2: chr5:72208839:72208948:+|3pUTR|ENSG00000131711|msi1_unk|total|mutant (ssRNA)
RNA: GGGAGUUCUACAGUCCGACGAUCCUUGCCUCUCUUCCGUCACCUGUCACAGGAGGUUCCUGCUCAGUAAUGAUAUUGUGAGUCCGGAUAAUAACUUUUUUUUUUUGUGCUUCAGAUUCCGAAGAAAAGAUCCUGUUUCCAUUUCAACAGAGGAUUGAGCAUCA
B3: chr16:70572763:70572864:+|3pUTR|ENSG00000189091|msi1|total|mutant (ssRNA)
RNA: GGGAGUUCUACAGUCCGACGAUCUCUGCAGCACCCAUCUCAGGUGGGUUCCAGAGGGCCUUCCGGGUAUAAUGAGAGCCUGUCCGGUGGAAGAGGCCCAGUUCCAGAAAUGUUCCAGCCCACCCCUGAGAAUUCCUCCUGUUUCAACAGAGGAUUGAGCAUCA
B4: ENSG00000138759:stop:overlap|stop_codon|ENSG00000138759|stop_codon|NA|stop_codon (ssRNA)
RNA: GGGAGUUCUACAGUCCGACGAUCAAGUUGGAAAGGUUGAGCCCUUGACCACAAUAUUUCACACCAUUAGAGAGCUUUCUUUAUAGGGACUCAAAAGCAAAGAAGAUUGGAUUUGACCUUCAAAAUUGAAGGUCGUUCUUAAAACAACAGAGGAUUGAGCAUCA
B5: chr15:75505753:75505856:-|CDS|ENSG00000169410|unk|FALSE|unique (ssRNA)
RNA: GGGAGUUCUACAGUCCGACGAUCGGUGAACGGCCACCCAGAUCCCUUCGAUGAGAUCAUCCUGUUCUCCCUCCCUCCUGCCUUAGACUGGGACUCAGUACAUGUUCCAGGUCCCCAUGCUAUGACCAUCCAAGAGUUGGUGGACAACAGAGGAUUGAGCAUCA
B6: chr3:73066602:73066703:+|3pUTR|ENSG00000163605|unk|total|mutant (ssRNA)
RNA: GGGAGUUCUACAGUCCGACGAUCACUAUUUUGCCGAAUGAAUGUUUAUGAAGCUGAUAUGAGACCAUCUCAGAAGAACCAAGCCGGUUCCUUGACCUUUUGCUUGCUUUUCUGAACAUUGUGAAUAUUACACAUGUCUUUCUACAACAGAGGAUUGAGCAUCA

target: T1, UNK ZnF1-6 (called full-length); test: nsRBNS (natural sequence RNA bind-n-seq); RBNS binding buffer (assumed for nsRBNS): 25 mM Tris pH 7.5, 150 mM KCl, 3 mM MgCl2, 0.01% Triton X-100, 500 ug/ml BSA, 20 U/ml SUPERase-In, 4 C; UNK is unkempt and MSI1 is Musashi-1; names of the RNAs are library labels; protein concentration not given here; high values mean tight binding

Row | Binder | binding signal [enrichment R]
1 | B1 | 0.513
2 | B2 | 0.52
3 | B3 | 0.526
4 | B4 | 0.281
5 | B5 | 0.863
6 | B6 | 0.318
